According to patent publication US9745266B2 (THE REGENTS OF THE UNIVERSITY OF COLORADO, A BODY CORPORATE, priority 2013, dated 2017):
At least one read-out could not be matched to a standard name with certainty.

How the values were obtained:
MRSA ATCC BAA-44 = experiment: Minimum resensitizing concentration (MRC), modified broth microdilution; assay type: cell-based, S. aureus; details: for MRC amox/clav: amoxicillin/clavulanic acid at 4/2 μg/ml; for MRC cefazolin: cefazolin at 8 μg/ml; for MRC methicillin: in presence of methicillin
MRSA ATCC 33592 = experiment: as above; assay type: cell-based, S. aureus; details: meropenem at 4 μg/ml

With `C=C1CCCCC2Nc3c(F)cc(Br)cc3C12CCNS(=O)(=O)c1ccc(Br)cc1` (stereo not drawn) [Cpd 21a, 4-bromo-N-(2-{2-bromo-4-fluoro-10-methylidene-5H,5aH,6H,7H,8H,9H,10H,10aH-cyclohepta[b]indol-10a-yl}ethyl)benzene-1-sulfonamide] the MRC amox/clav (MRSA ATCC BAA-44) was 16 µg/mL, the MRC cefazolin (MRSA ATCC BAA-44) was 16 µg/mL and the MRC methicillin (MRSA ATCC BAA-44) was 2 µg/mL. For the same compound, the MRC meropenem (MRSA ATCC 33592) was 16 µg/mL.
In the case of `C=C1CCCCC2Nc3c(F)cc(Br)cc3C12CCNS(=O)(=O)c1ccc(Cl)c(Cl)c1` (stereo not drawn) [Cpd 21b, N-(2-{2-bromo-4-fluoro-10-methylidene-5H,5aH,6H,7H,8H,9H,10H,10aH-cyclohepta[b]indol-10a-yl}ethyl)-3,4-dichlorobenzene-1-sulfonamide], the MRC amox/clav (MRSA ATCC BAA-44) is reported as 8 µg/mL, the MRC cefazolin (MRSA ATCC BAA-44) is reported as 4 µg/mL and the MRC methicillin (MRSA ATCC BAA-44) is reported as 8 µg/mL. It also gave an MRC meropenem (MRSA ATCC 33592) of 4 µg/mL.
`C=C1CCC[C@@H]2Nc3ccc(Br)cc3[C@]12CCCNS(=O)(=O)c1ccc(Cl)cc1` [Cpd 23, N-[3-(6-bromo-4-methylidene-2,3,4,4a,9,9a-hexahydro-1H-carbazol-4a-yl)propyl]-4-chlorobenzene-1-sulfonamide] showed an MRC amox/clav (MRSA ATCC BAA-44) of 8 µg/mL, an MRC cefazolin (MRSA ATCC BAA-44) of 8 µg/mL and an MRC methicillin (MRSA ATCC BAA-44) of 4 µg/mL. For the same compound, the MRC meropenem (MRSA ATCC 33592) was 8 µg/mL.
